# Data as given in the antibiotic and cytotoxicity screens of Wong et al. (2023).
# The list shows a part of the results.
# How the values were obtained:
# HSkMC = human skeletal muscle cells; assay: cytotoxicity call (relative viability < 0.9); conditions: 10 µM
# HepG2 = assay: cytotoxicity call (relative viability < 0.9); conditions: 10 µM
# S. aureus RN4220 = assay: growth inhibition call (relative growth <= 0.2); conditions: 50 µM
Compound,cytotoxicity call (HSkMC),cytotoxicity call (HepG2),growth inhibition call (S. aureus RN4220)
CCCCOc1ccc([C@@H]2c3c(oc4ccc(Br)cc4c3=O)C(=O)N2CCCN2CCOCC2)cc1,inactive,inactive,inactive
C[C@H]1CCCCO[C@H](CN(C)S(=O)(=O)c2cccs2)[C@@H](C)CN([C@@H](C)CO)C(=O)c2cc(NC(=O)NC3CCCCC3)ccc2O1,inactive,inactive,inactive
Cc1ccc(S(=O)(=O)N(C)C[C@H]2Oc3c(NC(=O)NC(C)C)cccc3C(=O)N([C@H](C)CO)C[C@@H]2C)cc1,inactive,inactive,inactive
C[C@@H]1CN([C@H](C)CO)C(=O)c2cc(NC(=O)Nc3ccc4c(c3)OCO4)ccc2O[C@@H](C)CCCCO[C@@H]1CN(C)C(=O)C1CCCCC1,inactive,inactive,inactive
COc1ccc(-c2cc(=O)c3c(O)c(OC)c(OC)c(OC)c3o2)cc1,inactive,active,inactive
COc1ccc(S(=O)(=O)Nc2ccc3c(c2)C(=O)N([C@@H](C)CO)C[C@H](C)[C@H](CN(C)S(=O)(=O)c2cn(C)cn2)O3)cc1,inactive,inactive,inactive
C[C@H](CO)N1C[C@H](C)[C@H](CN(C)CC2CCCCC2)Oc2c(NC(=O)Nc3ccc(F)cc3)cccc2C1=O,inactive,inactive,inactive
CCc1nc2ccc(C(=O)N3CCN(S(=O)(=O)CC)CC3)cn2c1N(CC)C(=O)CCC1CCCC1,inactive,inactive,inactive
CC[C@@H](C)NCCCCOc1ccc(Cl)cc1C(C)(C)C,active,active,active
Cc1noc(C)c1NC(=O)Nc1ccc2c(c1)CC(=O)N([C@H](C)CO)C[C@@H](C)[C@@H](CN(C)CC1CC1)O2,inactive,inactive,inactive
COc1ccc(COCC23Oc4ccccc4[C@H]([C@H]2COC(=O)c2ccccc2)n2c(c4ccccc4c(-c4ccccc4)c2=O)N3C)cc1,inactive,active,inactive
CC(=O)OCN1CCN(COC(C)=O)C1=O,inactive,inactive,inactive
C[C@@H]1CCCCO[C@H](CN(C)C(=O)c2ccccc2)[C@@H](C)CN([C@@H](C)CO)C(=O)c2cc(NC(=O)CCC(F)(F)F)ccc2O1,inactive,inactive,inactive
Cc1noc(C)c1NC(=O)Nc1ccc2c(c1)C(=O)N([C@H](C)CO)C[C@@H](C)[C@@H](CN(C)S(=O)(=O)c1ccc(F)cc1)OCCCC[C@H](C)O2,inactive,inactive,inactive
C[C@@H]1CN([C@@H](C)CO)C(=O)c2cc(NC(=O)Nc3ccc(C(F)(F)F)cc3)ccc2O[C@@H](C)CCCCO[C@@H]1CN(C)S(=O)(=O)c1ccc(Cl)cc1,inactive,inactive,inactive
COc1ccc(NC(=O)Nc2cccc3c2O[C@H](CN(C)CC2CCCCC2)[C@@H](C)CN([C@@H](C)CO)C3=O)cc1,inactive,inactive,inactive
C[C@H](CO)N1C[C@H](C)[C@@H](CN(C)S(=O)(=O)c2cn(C)cn2)Oc2ccc(NC(=O)Cn3cnnn3)cc2CC1=O,inactive,inactive,inactive
COc1ccc(NC(=O)Nc2ccc3c(c2)CC(=O)N([C@@H](C)CO)C[C@@H](C)[C@H](CN(C)S(=O)(=O)c2c(C)noc2C)O3)cc1,inactive,inactive,inactive
COc1ccccc1[C@@H](NC(=O)C1CCN(CCn2cnc3c2c(=O)n(C)c(=O)n3C)CC1)c1ccccn1,inactive,inactive,inactive

Compound,cytotoxicity call (HSkMC),cytotoxicity call (HepG2),growth inhibition call (S. aureus RN4220)
CN1CCN(C(=O)C[C@H]2CC[C@H]3[C@H](COc4ccc(NC(=O)C5CCOCC5)cc4C(=O)N3C)O2)CC1,inactive,inactive,inactive
C[C@H]1CN([C@@H](C)CO)C(=O)c2cc(NS(=O)(=O)c3ccccc3)ccc2O[C@@H]1CN(C)Cc1ccc(-c2ccccc2)cc1,inactive,inactive,inactive
Nc1ccc(S(=O)(=O)NC(=O)c2ccccc2)cc1,inactive,inactive,inactive
CN(C)Cc1cn(CC[C@@H]2CC[C@H](NS(=O)(=O)c3ccccc3)[C@H](CO)O2)nn1,inactive,inactive,inactive
C[C@H](NC(=O)N(C)C[C@H]1OCc2ccccc2-c2ccccc2C(=O)N([C@H](C)CO)C[C@H]1C)c1ccccc1,inactive,inactive,inactive
C[C@H](CO)N1C[C@H](C)[C@@H](CN(C)C(=O)Nc2ccc(C(F)(F)F)cc2)Oc2c(NC(=O)Nc3ccccc3)cccc2C1=O,inactive,inactive,inactive
CN1C(=O)c2cc(NC(=O)c3ccc(C(F)(F)F)cc3)ccc2OC[C@H]2O[C@H](CC(=O)NC3Cc4ccccc4C3)CC[C@@H]21,inactive,inactive,inactive
C[C@@H]1CN([C@@H](C)CO)C(=O)Cc2cc(NC(=O)C3CCCCC3)ccc2O[C@H]1CN(C)Cc1ccc(C(=O)Nc2ccccc2N)cc1,inactive,inactive,inactive
CCCc1ccc2c(c1)CNCCC2,inactive,inactive,inactive
C[C@@H]1CCCCO[C@H](CN(C)CC2CC2)[C@@H](C)CN([C@H](C)CO)C(=O)c2cc(NS(=O)(=O)c3cn(C)cn3)ccc2O1,inactive,inactive,inactive
C[C@H](O)C#Cc1cnc2c(c1)C(=O)N([C@@H](C)CO)C[C@H](C)[C@H](CN(C)C(=O)Nc1ccc(C(F)(F)F)cc1)O2,inactive,inactive,inactive
NC(=O)c1cc2ccccc2o/c1=N\O,inactive,inactive,inactive
Cc1ccc(S(=O)(=O)N(C)C[C@@H]2Oc3ccc(NS(=O)(=O)c4ccccc4)cc3C(=O)N([C@H](C)CO)C[C@H]2C)cc1,inactive,inactive,inactive
C[C@@H]1CCCCO[C@H](CN(C)Cc2ccc(C(=O)O)cc2)[C@H](C)CN([C@H](C)CO)C(=O)c2cc(NC(=O)Nc3ccc(C(F)(F)F)cc3)ccc2O1,inactive,inactive,inactive
CC(C)CC#Cc1ccc2c(c1)O[C@@H](CN(C)C(=O)NC1CCCC1)[C@@H](C)CN([C@H](C)CO)S2(=O)=O,inactive,inactive,inactive
O=c1ccn([C@@H]2O[C@H](COP(=O)(O)OP(=O)(O)OP(=O)(O)OP(=O)(O)OC[C@H]3O[C@@H](n4ccc(=O)[nH]c4=O)[C@H](O)[C@@H]3O)[C@@H](O)[C@H]2O)c(=O)[nH]1,inactive,inactive,inactive
C[C@@H]1CN([C@@H](C)CO)C(=O)Cc2cc(NC(=O)c3ccncc3)ccc2O[C@H]1CN(C)C(=O)NC1CCCCC1,inactive,inactive,inactive
CN(C)CC#Cc1ccc([C@H]2[C@H](CO)N3C(=O)CN(C(=O)c4cccnc4)C[C@@H]23)cc1,inactive,inactive,inactive
CNC[C@@H]1Oc2ccc(NC(=O)CCN3CCOCC3)cc2CC(=O)N([C@H](C)CO)C[C@@H]1C,inactive,inactive,inactive

Compound,cytotoxicity call (HSkMC),cytotoxicity call (HepG2),growth inhibition call (S. aureus RN4220)
COc1ccc(CN(C)C[C@H]2Oc3ccc(NS(C)(=O)=O)cc3C(=O)N([C@H](C)CO)C[C@H]2C)cc1,inactive,inactive,inactive
Cc1noc(C)c1S(=O)(=O)N(C)C[C@H]1Oc2ccc(NC(=O)Cc3cn(C)c4ccccc34)cc2CC(=O)N([C@@H](C)CO)C[C@@H]1C,inactive,inactive,inactive
CC1CCC(C(C)C)C(O)C1 (stereo not drawn),inactive,inactive,inactive
C[C@H](CO)N1C[C@H](C)[C@H](CN(C)S(C)(=O)=O)Oc2ccc(NS(C)(=O)=O)cc2C1=O,inactive,inactive,inactive
COc1ccc2c3c(n(c2c1)C)[C@H](CO)N(C[C@]13CN(C1)C(=O)Nc1cccc(c1)F)C(=O)CN1CCOCC1,inactive,inactive,inactive
C[C@@H]1CN([C@H](C)CO)C(=O)c2cc(NC(=O)Cc3cn(C)c4ccccc34)ccc2O[C@@H]1CN(C)S(=O)(=O)c1cn(C)cn1,inactive,inactive,inactive
CC(C)C[C@@H]1C(=O)O[C@H](C)C(=O)N(C)[C@@H](CC(C)C)C(=O)O[C@H](Cc2ccc(N3CCOCC3)cc2)C(=O)N(C)[C@@H](CC(C)C)C(=O)O[C@H](C)C(=O)N(C)[C@@H](CC(C)C)C(=O)O[C@H](Cc2ccc(N3CCOCC3)cc2)C(=O)N1C,active,inactive,inactive
CC(C)CC#Cc1ccc2c(c1)O[C@H](CN(C)C(=O)c1ccncc1)[C@@H](C)CN([C@@H](C)CO)S2(=O)=O,inactive,inactive,inactive
Cn1c(CNc2ccccc2)cc(=O)n(C)c1=O,inactive,inactive,inactive
CCCC(=O)Nc1ccc2c(c1)OC[C@@H](C)N(Cc1ccc(-c3ccccn3)cc1)C[C@H](C)[C@@H](OC)CN(C)C2=O,inactive,inactive,inactive
C[C@H](CO)N1C[C@H](C)[C@H](CN(C)Cc2ccccc2F)Oc2cc(C#CCN(C)C)ccc2S1(=O)=O,inactive,inactive,inactive
COc1cccc(-c2ccc3c(c2)O[C@H](CN(C)Cc2cncnc2)[C@@H](C)CN([C@H](C)CO)S3(=O)=O)c1,inactive,inactive,inactive
C[C@H](CO)N1C[C@H](C)[C@H](CN(C)C(=O)Nc2ccc(F)cc2)Oc2ccc(NC(=O)Cn3cnnn3)cc2C1=O,inactive,inactive,inactive
CC(C)NC(=O)N(C)C[C@@H]1Oc2ccc(NC(=O)Cc3ccccc3)cc2CC(=O)N([C@@H](C)CO)C[C@H]1C,inactive,inactive,inactive
COc1ccccc1OCC(O)COC(N)=O (stereo not drawn),inactive,active,inactive
COCC(=O)Nc1ccc2c(c1)[C@H]1C[C@H](CC(=O)N3CCOCC3)O[C@@H](CO)[C@H]1O2,inactive,inactive,inactive
O=C(C[C@H]1CC[C@H]2[C@@H](COC[C@H](O)CN2S(=O)(=O)c2ccc(Cl)cc2)O1)NCCN1CCCC1,inactive,inactive,inactive
CC[C@H](C)[C@H]1O[C@]2(CC[C@@H]1C)C[C@@H]1C[C@@H](C/C=C(\C)[C@@H](O[C@H]3C[C@H](OC)[C@@H](O[C@H]4C[C@H](OC)[C@@H](O)[C@H](C)O4)[C@H](C)O3)[C@@H](C)/C=C/C=C3\CO[C@@H]4[C@H](O)C(C)=C[C@@H](C(=O)O1)[C@]34O)O2,active,active,inactive
